# In the supplement of paper PMC8728848:
# This is one part of the list.
# B1: rAAL-I144G (Agrocybe aegerita), Q6WY08 (protein)
# chain: MQGVNIYNISAGTSVDLAAPVTTGDIVTFFSSALNLNAGAGNPNNTTLNLFAENGAYLLHIAFRLQENVIIFNSRQPDGPWLVEQRVSDVANQFAGIDGKAMVTVFDHGDKYQVVINEKTVIQYTKQISGLTLSLSYNATEETSGFSTVVEAVTYTGLALEHHHHHH
# Columns and labels:
# Assay in all cases: glycan array binding signal (z-score within array); higher = stronger binding
# Settings in all cases: glycan notation: IUPAC condensed, linker removed; mutation: I144G
# [1] = target: Gal(b1-3)GlcNAc(b1-2)Man(a1-3)[Gal(b1-3)GlcNAc(b1-2)Man(a1-6)]Man(b1-4)GlcNAc(b1-4)GlcNAc
# Summary of the method: (§1)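 The binding signal is a Z-score computed within each array and averaged over linkers. Arrays of the same protein sequence at different concentrations or buffers were also averaged together. Data originate from 3228 arrays in the Consortium for Functional Glycomics database, kept only where the protein sequence was available.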
# [2] = target: Gal(b1-3)GlcNAc(b1-2)Man(a1-3)[Gal(b1-3)GlcNAc(b1-2)Man(a1-6)]Man(b1-4)GlcNAc(b1-4)[Fuc(a1-6)]GlcNAc
# Summary of the method: as §1
# [3] = target: Gal(b1-3)GlcNAc(b1-2)Man(a1-3)[GlcNAc(b1-4)][Gal(b1-3)GlcNAc(b1-2)Man(a1-6)]Man(b1-4)GlcNAc(b1-4)GlcNAc
# Summary of the method: as §1
# [4] = target: Gal(b1-3)GlcNAc(b1-2)[Gal(b1-3)GlcNAc(b1-6)]Man(a1-6)[Gal(b1-3)GlcNAc(b1-2)Man(a1-3)]Man(b1-4)GlcNAc(b1-4)GlcNAc
# Summary of the method: as §1
# [5] = target: Gal(b1-3)GlcNAc(b1-3)Gal(b1-3)GlcNAc
# Summary of the method: as §1
# [6] = target: Gal(b1-3)GlcNAc(b1-3)Gal(b1-4)Glc
# Summary of the method: as §1
# [7] = target: Gal(b1-3)GlcNAc(b1-3)Gal(b1-4)GlcNAc
# Summary of the method: as §1
# [8] = target: Gal(b1-3)GlcNAc(b1-3)Gal(b1-4)GlcNAc(b1-2)Man(a1-3)[Gal(b1-3)GlcNAc(b1-3)Gal(b1-4)GlcNAc(b1-2)Man(a1-6)]Man(b1-4)GlcNAc(b1-4)GlcNAc
# Summary of the method: as §1
# [9] = target: Gal(b1-3)GlcNAc(b1-3)Gal(b1-4)GlcNAc(b1-2)[Gal(b1-3)GlcNAc(b1-3)Gal(b1-4)GlcNAc(b1-6)]Man(a1-6)[Gal(b1-3)GlcNAc(b1-3)Gal(b1-4)GlcNAc(b1-2)Man(a1-3)]Man(b1-4)GlcNAc(b1-4)[Fuc(a1-6)]GlcNAc
# Summary of the method: as §1
# [10] = target: Gal(b1-3)GlcNAc(b1-3)Gal(b1-4)GlcNAc(b1-3)Gal(b1-4)GlcNAc(b1-2)[Gal(b1-3)GlcNAc(b1-3)Gal(b1-4)GlcNAc(b1-3)Gal(b1-4)GlcNAc(b1-6)]Man(a1-6)[Gal(b1-3)GlcNAc(b1-3)Gal(b1-4)GlcNAc(b1-3)Gal(b1-4)GlcNAc(b1-2)Man(a1-3)]Man(b1-4)GlcNAc(b1-4)[Fuc(a1-6)]GlcNAc
# Summary of the method: as §1
# [11] = target: Gal(b1-3)GlcNAc(b1-3)Gal(b1-4)GlcNAc(b1-6)[Gal(b1-3)GlcNAc(b1-3)]Gal(b1-4)Glc
# Summary of the method: as §1
# [12] = target: Gal(b1-3)GlcNAc(b1-3)Gal(b1-4)[Fuc(a1-3)]GlcNAc
# Summary of the method: as §1
# [13] = target: Gal(b1-3)GlcNAc(b1-3)Gal(b1-4)[Fuc(a1-3)]GlcNAc(b1-6)[Gal(b1-3)GlcNAc(b1-3)]Gal(b1-4)Glc
# Summary of the method: as §1
# [14] = target: Gal(b1-3)GlcNAc(b1-3)GalNAc
# Summary of the method: as §1
# [15] = target: Gal(b1-3)GlcNAc(b1-6)Gal(b1-4)GlcNAc
# Summary of the method: as §1
# [16] = target: Gal(b1-3)GlcNAc(b1-6)GalNAc
# Summary of the method: as §1
# [17] = target: Gal(b1-3)GlcNAc(b1-6)[Gal(b1-3)]GalNAc
# Summary of the method: as §1
# Gal(b1-3)GlcNAc6S = target: Gal(b1-3)GlcNAc6S
# Summary of the method: as §1
# [18] = target: Gal(b1-3)[Fuc(a1-4)]GlcNAc
# Summary of the method: as §1
# [19] = target: Gal(b1-3)[Fuc(a1-4)]GlcNAc(b1-2)Man
# Summary of the method: as §1
# [20] = target: Gal(b1-3)[Fuc(a1-4)]GlcNAc(b1-2)Man(a1-3)[Gal(b1-3)[Fuc(a1-4)]GlcNAc(b1-2)Man(a1-6)]Man(b1-4)GlcNAc(b1-4)[Fuc(a1-6)]GlcNAc
# Summary of the method: as §1
# [21] = target: Gal(b1-3)[Fuc(a1-4)]GlcNAc(b1-3)Gal(b1-3)[Fuc(a1-4)]GlcNAc
# Summary of the method: as §1
# [22] = target: Gal(b1-3)[Fuc(a1-4)]GlcNAc(b1-3)Gal(b1-4)[Fuc(a1-3)]GlcNAc
# Summary of the method: as §1
# [23] = target: Gal(b1-3)[Fuc(a1-4)]GlcNAc(b1-6)GalNAc
# Summary of the method: as §1
# [24] = target: Gal(b1-3)[GlcNAc(b1-6)]GalNAc
# Summary of the method: as §1
# [25] = target: Gal(b1-3)[Neu5Ac(a2-6)]GalNAc
# Summary of the method: as §1
# [26] = target: Gal(b1-3)[Neu5Ac(a2-6)]GlcNAc(b1-4)Gal(b1-4)Glc
# Summary of the method: as §1
# [27] = target: Gal(b1-3)[Neu5Ac(b2-6)]GalNAc
# Summary of the method: as §1
# Gal(b1-4)Gal = target: Gal(b1-4)Gal
# Summary of the method: as §1
# [28] = target: Gal(b1-4)GalNAc(a1-3)[Fuc(a1-2)]Gal(b1-4)GlcNAc
# Summary of the method: as §1
# [29] = target: Gal(b1-4)GalNAc(b1-3)[Fuc(a1-2)]Gal(b1-4)GlcNAc
# Summary of the method: as §1
# Gal(b1-4)Glc = target: Gal(b1-4)Glc
# Summary of the method: as §1
# Gal(b1-4)Glc6S = target: Gal(b1-4)Glc6S
# Summary of the method: as §1
# Gal(b1-4)GlcNAc = target: Gal(b1-4)GlcNAc
# Summary of the method: as §1
# [30] = target: Gal(b1-4)GlcNAc(a1-6)Gal(b1-4)GlcNAc
# Summary of the method: as §1
# Gal(b1-4)GlcNAc(b1-2)Man = target: Gal(b1-4)GlcNAc(b1-2)Man
# Summary of the method: as §1
# [31] = target: Gal(b1-4)GlcNAc(b1-2)Man(a1-3)Man(b1-4)GlcNAc(b1-4)GlcNAc
# Summary of the method: as §1
# [32] = target: Gal(b1-4)GlcNAc(b1-2)Man(a1-3)[Gal(b1-4)GlcNAc(b1-2)Man(a1-6)]Man(b1-4)GlcNAc(b1-4)GlcNAc
# Summary of the method: as §1
# [33] = target: Gal(b1-4)GlcNAc(b1-2)Man(a1-3)[Gal(b1-4)GlcNAc(b1-2)Man(a1-6)]Man(b1-4)GlcNAc(b1-4)[Fuc(a1-6)]GlcNAc
# Summary of the method: as §1
# [34] = target: Gal(b1-4)GlcNAc(b1-2)Man(a1-3)[Gal(b1-4)GlcNAc(b1-2)Man(a1-6)][Gal(b1-4)GlcNAc(b1-4)]Man(b1-4)GlcNAc(b1-4)[Fuc(a1-6)]GlcNAc
# Summary of the method: as §1
# [35] = target: Gal(b1-4)GlcNAc(b1-2)Man(a1-3)[Gal(b1-4)GlcNAc(b1-2)Man(a1-6)][GlcNAc(b1-4)]Man(b1-4)GlcNAc(b1-4)[Fuc(a1-6)]GlcNAc
# Summary of the method: as §1
# [36] = target: Gal(b1-4)GlcNAc(b1-2)Man(a1-3)[GlcNAc(b1-2)Man(a1-6)]Man(b1-4)GlcNAc(b1-4)GlcNAc
# Summary of the method: as §1
# [37] = target: Gal(b1-4)GlcNAc(b1-2)Man(a1-3)[GlcNAc(b1-4)][Gal(b1-4)GlcNAc(b1-2)Man(a1-6)]Man(b1-4)GlcNAc(b1-4)GlcNAc
# Summary of the method: as §1
# [38] = target: Gal(b1-4)GlcNAc(b1-2)Man(a1-3)[Man(a1-6)]Man(b1-4)GlcNAc(b1-4)GlcNAc
# Summary of the method: as §1
# [39] = target: Gal(b1-4)GlcNAc(b1-2)Man(a1-6)Man(b1-4)GlcNAc(b1-4)GlcNAc
# Summary of the method: as §1
binder,measurement,setting,value
B1,glycan array binding signal (z-score),[1],-0.007
same,glycan array binding signal (z-score),[2],-0.087
same,glycan array binding signal (z-score),[3],-0.122
same,glycan array binding signal (z-score),[4],-0.06
same,glycan array binding signal (z-score),[5],-0.196
same,glycan array binding signal (z-score),[6],-0.159
same,glycan array binding signal (z-score),[7],-0.146
same,glycan array binding signal (z-score),[8],-0.127
same,glycan array binding signal (z-score),[9],0.008
same,glycan array binding signal (z-score),[10],-0.098
same,glycan array binding signal (z-score),[11],-0.148
same,glycan array binding signal (z-score),[12],-0.184
same,glycan array binding signal (z-score),[13],-0.115
same,glycan array binding signal (z-score),[14],-0.067
same,glycan array binding signal (z-score),[15],-0.081
same,glycan array binding signal (z-score),[16],-0.142
same,glycan array binding signal (z-score),[17],-0.132
same,glycan array binding signal (z-score),Gal(b1-3)GlcNAc6S,-0.128
same,glycan array binding signal (z-score),[18],-0.12
same,glycan array binding signal (z-score),[19],-0.188
same,glycan array binding signal (z-score),[20],-0.073
same,glycan array binding signal (z-score),[21],-0.167
same,glycan array binding signal (z-score),[22],-0.157
same,glycan array binding signal (z-score),[23],-0.038
same,glycan array binding signal (z-score),[24],-0.153
same,glycan array binding signal (z-score),[25],-0.165
same,glycan array binding signal (z-score),[26],-0.148
same,glycan array binding signal (z-score),[27],-0.183
same,glycan array binding signal (z-score),Gal(b1-4)Gal,-0.075
same,glycan array binding signal (z-score),[28],-0.236
same,glycan array binding signal (z-score),[29],-0.168
same,glycan array binding signal (z-score),Gal(b1-4)Glc,-0.168
same,glycan array binding signal (z-score),Gal(b1-4)Glc6S,-0.137
same,glycan array binding signal (z-score),Gal(b1-4)GlcNAc,-0.12
same,glycan array binding signal (z-score),[30],-0.145
same,glycan array binding signal (z-score),Gal(b1-4)GlcNAc(b1-2)Man,1.09
same,glycan array binding signal (z-score),[31],-0.062
same,glycan array binding signal (z-score),[32],-0.075
same,glycan array binding signal (z-score),[33],-0.077
same,glycan array binding signal (z-score),[34],-0.084
same,glycan array binding signal (z-score),[35],-0.095
same,glycan array binding signal (z-score),[36],-0.118
same,glycan array binding signal (z-score),[37],-0.175
same,glycan array binding signal (z-score),[38],-0.061
same,glycan array binding signal (z-score),[39],-0.073
